# The supplement of paper PMC5895741
# B1: MS2 coat protein; the commonest letter at each place (parent)
# chain: MASNFTQFVLVDNGGTGDVTVAPSNFANGVAEWISSNSRSQAYKVTCSVRQSSAQNRKYTIKVEVPKVATQTVGGVELPVAAWRSYLNMELTIPIFATNSDCELIVKAMQGLLKDGNPIPSAIAANSGIY
# Variants of: B1
# Experiment: apparent fitness score (VLP assembly selection enrichment vs plasmid library) (log10 ratio); higher = better expression / assembly into well-formed VLPs
# Protocol: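 SyMAPS: NNK codon saturation mutagenesis of every codon of the MS2 bacteriophage coat protein (EMPIRIC cloning), expressed overnight in E. coli DH10B at 37 °C. Assembled VLPs were selected by ammonium sulfate precipitation plus FPLC size-exclusion chromatography, and the encapsidated RNA was sequenced. Apparent fitness score = log10 of the mean over 3 biological replicates of (percent abundance in the VLP library / percent abundance in the plasmid library). Variants absent after selection were set to 0.0001, i.e. -4.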
# 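Further: counts from Illumina MiSeq reads, cDNA of packaged RNA versus plasmid DNA taken before selection, each replicate independent from library construction onward, expression induced with 0.1% arabinose.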
row,Variant,apparent fitness score (log10)
1,N28Y,0.325
2,N28G,0.719
3,N28F,-0.544
4,N28E,-0.442
5,N28P,< -4
6,N28V,< -4
7,N28W,< -4
8,N28H,0.301
9,N28C,0.382
10,N28K,-0.721
11,N28L,< -4
12,N28Q,< -4
13,N28D,0.546
14,N28I,< -4
15,N28A,< -4
16,N28T,< -4
17,N28S,-1.5
18,N28R,< -4
19,T16K,-0.123
20,T16Q,0.492
21,T16A,0.149
22,T16E,-0.728
23,T16G,-1.11
24,T16N,0.114

row,Variant,apparent fitness score (log10)
1,T16R,0.368
2,T16H,0.179
3,T16M,0.981
4,T16L,0.409
5,T16S,0.402
6,T16Y,0.11
7,T16P,0.425
8,T16W,-0.278
9,T16F,0.185
10,T16I,0.73
11,T16V,-0.0753
12,T16D,0.367
13,T16C,0.304
14,G14P,-1.47
15,G14E,0.577
16,G14V,-0.786
17,G14Y,-0.528
18,G14H,0.129
19,G14Q,0.673
20,G14M,-0.565
21,G14I,< -4
22,G14L,-1.14
23,G14F,< -4
24,G14C,-0.272

row,Variant,apparent fitness score (log10)
1,G14N,0.372
2,G14S,-1.08
3,G14A,0.377
4,G14K,0.375
5,G14W,< -4
6,G14D,-0.163
7,G14R,-1.1
8,G14T,-0.309
9,N25F,< -4
10,N25E,-0.963
11,N25S,< -4
12,N25V,< -4
13,N25Y,< -4
14,N25C,< -4
15,N25G,0.0795
16,N25D,0.782
17,N25H,< -4
18,N25I,< -4
19,N25P,-1.73
20,N25Q,< -4
21,N25K,-1.39
22,N25W,-1.14
23,N25M,-0.309
24,N25R,< -4

row,Variant,apparent fitness score (log10)
1,N25T,-1.49
2,N25A,-1.3
3,N25L,-1.31
4,V21Q,-1.72
5,V21L,-1.28
6,V21W,0.0657
7,V21M,-1.44
8,V21P,-1.16
9,V21H,-0.933
10,V21K,-1.28
11,V21I,< -4
12,V21R,< -4
13,V21G,-1.72
14,V21T,< -4
15,V21A,< -4
16,V21E,< -4
17,V21S,-1.61
18,V21Y,< -4
19,V21N,< -4
20,V21F,< -4
21,V21C,-1.39
22,V21D,< -4
23,T20Q,0.97
24,T20E,0.125

row,Variant,apparent fitness score (log10)
1,T20R,0.892
2,T20A,1.23
3,T20M,0.931
4,T20G,-0.885
5,T20K,1.01
6,T20P,-1.05
7,T20Y,0.94
8,T20I,0.859
9,T20S,0.921
10,T20L,0.671
11,T20H,0.732
12,T20D,-0.0217
13,T20N,0.958
14,T20F,0.322
15,T20W,0.835
16,T20V,0.832
17,T20C,0.773
18,F26G,-0.786
19,F26C,0.39
20,F26Y,0.746
21,F26Q,0.464
22,F26P,-0.625
23,F26N,0.376
24,F26T,-0.963

row,Variant,apparent fitness score (log10)
1,F26E,< -4
2,F26I,-0.845
3,F26L,0.958
4,F26W,< -4
5,F26R,0.518
6,F26V,-0.556
7,F26D,< -4
8,F26A,-1.39
9,F26H,0.465
10,F26K,0.355
11,F26M,-0.00983
12,F26S,0.852
13,G29M,< -4
14,G29L,< -4
15,G29F,< -4
16,G29E,0.234
17,G29N,-0.721
18,G29K,< -4
19,G29C,0.234
20,G29A,-0.88
21,G29I,< -4
22,G29H,< -4
23,A27V,0.45
24,A27Y,-0.786

row,Variant,apparent fitness score (log10)
1,A27D,< -4
2,A27P,0.274
3,A27L,0.168
4,A27N,< -4
5,A27H,< -4
6,A27F,-0.163
7,A27R,< -4
8,A27I,< -4
9,A27T,0.593
10,A27S,0.431
11,A27G,0.699
12,A27C,0.536
13,V11Y,< -4
14,V11S,-1.46
15,V11R,< -4
16,V11T,-0.765
17,V11W,< -4
18,V11Q,-1.42
19,V11P,-1.26
20,D18G,< -4
21,D18W,< -4
22,D18N,0.308
23,D18M,< -4
24,D18E,-1.01

row,Variant,apparent fitness score (log10)
1,D18Y,-1.15
2,D18I,-1.08
3,D18C,< -4
4,D18H,-1.15
5,D18L,-1.5
6,D18F,-1.3
7,D18A,-0.0665
8,D18Q,-0.515
9,D18P,-1.13
10,D18T,-0.909
11,D18K,-0.403
12,D18S,-0.963
13,D18R,-1.56
14,D18V,-1.6
15,P23I,-1.32
16,P23W,-0.963
17,P23H,-0.707
18,P23V,-0.752
19,P23N,-0.213
20,P23K,< -4
21,P23M,-0.786
22,P23T,-1.74
23,P23Y,-1.72
24,P23L,-1.31

row,Variant,apparent fitness score (log10)
1,P23G,-1.17
2,P23S,-1.56
3,P23A,< -4
4,P23F,-1.66
5,P23E,-1.32
6,P23D,-0.522
7,P23Q,< -4
8,P23R,-1.33
9,P23C,-0.786
10,V19R,-1.01
11,V19F,-0.722
12,V19L,-0.338
13,V19K,-0.543
14,V19T,-0.386
15,V19Q,-0.991
16,V19D,< -4
17,V19C,-1.49
18,V19M,-0.832
19,V19P,-0.646
20,V19Y,-0.309
21,V19H,-0.707
22,V19S,-0.914
23,V19N,-0.797
24,V19A,-0.192

row,Variant,apparent fitness score (log10)
1,V19I,0.931
2,V19W,-1.32
3,V19G,-0.649
4,V19E,-0.493
5,D12C,-0.883
6,D12Y,-0.243
7,D12G,-2.11
8,D12N,-0.00827
9,D12L,-0.895
10,D12M,-0.427
11,D12E,0.658
12,D12W,< -4
13,D12T,-1.6
14,D12V,-0.389
15,D12H,< -4
16,D12S,-0.609
17,D12K,-0.848
18,D12Q,-0.911
19,D12F,< -4
20,D12I,-0.544
21,D12P,-1.24
22,D12R,-0.795
23,D12A,-0.544
24,G17N,0.357

row,Variant,apparent fitness score (log10)
1,G17W,< -4
2,G17E,-0.735
3,G17Q,0.0581
4,G17L,-1.81
5,G17H,0.422
6,G17R,-0.217
7,G17M,0.15
8,G17Y,< -4
9,G17T,-0.398
10,G17A,-0.287
11,G17D,-0.0673
12,G17I,< -4
13,G17C,0.259
14,G17K,0.0891
15,G17S,0.14
16,G17V,-1.02
17,G17F,-0.684
18,G17P,-2.31
19,A22C,0.0168
20,A22H,0.251
21,A22Y,-0.802
22,A22L,-0.739
23,A22R,0.283
24,A22P,-1.15

row,Variant,apparent fitness score (log10)
1,A22W,< -4
2,A22M,-0.582
3,A22V,-0.799
4,A22D,-0.963
5,A22S,0.125
6,A22I,-1.25
7,A22F,-1.39
8,A22G,0.257
9,A22K,0.226
10,A22T,0.0558
11,A22N,0.601
12,A22E,< -4
13,A22Q,0.512
14,G15H,< -4
15,G15A,-1.31
16,G15C,< -4
17,G15Y,< -4
18,G15P,-1.73
19,G15Q,< -4
20,G15M,< -4
21,G15K,-1.31
22,G15N,< -4
23,G15E,-0.567
24,G15T,< -4

row,Variant,apparent fitness score (log10)
1,G15L,-1.42
2,G15R,-2.26
3,G15S,-1.88
4,G15I,< -4
5,G15F,-0.965
6,G15D,< -4
7,G15V,-0.81
8,G15W,< -4
9,S24G,-0.968
10,S24W,-0.783
11,S24K,-0.346
12,S24Q,< -4
13,S24E,-1.21
14,S24H,-1.63
15,S24C,-0.737
16,S24N,-0.567
17,S24P,-0.747
18,S24V,-1.87
19,S24L,< -4
20,S24I,< -4
21,S24R,-1.04
22,S24D,< -4
23,S24F,-0.927
24,S24T,< -4

row,Variant,apparent fitness score (log10)
1,S24Y,-1.02
2,S24M,< -4
3,S24A,0.0312
4,N13E,< -4
5,N13K,0.03
6,N13R,0.483
7,N13S,-1.01
8,N13V,-0.38
9,N13W,-1.03
10,N13M,1.04
11,N13D,0.113
12,N13G,0.113
13,N13A,-0.523
14,N13F,0.108
15,N13T,-0.681
16,N13Y,0.466
17,N13C,0.474
18,N13P,-1.56
19,N13L,0.0725
20,N13I,-0.515
21,N13Q,0.235
22,N13H,0.0363
